Target: 血浆激肽释放酶(plasma kallikrein,PK) (human, UniProt P03952 20-638)
Test: cell-based or functional assay

UniProt P03952, sequence (P03952 20-638 limits assumed): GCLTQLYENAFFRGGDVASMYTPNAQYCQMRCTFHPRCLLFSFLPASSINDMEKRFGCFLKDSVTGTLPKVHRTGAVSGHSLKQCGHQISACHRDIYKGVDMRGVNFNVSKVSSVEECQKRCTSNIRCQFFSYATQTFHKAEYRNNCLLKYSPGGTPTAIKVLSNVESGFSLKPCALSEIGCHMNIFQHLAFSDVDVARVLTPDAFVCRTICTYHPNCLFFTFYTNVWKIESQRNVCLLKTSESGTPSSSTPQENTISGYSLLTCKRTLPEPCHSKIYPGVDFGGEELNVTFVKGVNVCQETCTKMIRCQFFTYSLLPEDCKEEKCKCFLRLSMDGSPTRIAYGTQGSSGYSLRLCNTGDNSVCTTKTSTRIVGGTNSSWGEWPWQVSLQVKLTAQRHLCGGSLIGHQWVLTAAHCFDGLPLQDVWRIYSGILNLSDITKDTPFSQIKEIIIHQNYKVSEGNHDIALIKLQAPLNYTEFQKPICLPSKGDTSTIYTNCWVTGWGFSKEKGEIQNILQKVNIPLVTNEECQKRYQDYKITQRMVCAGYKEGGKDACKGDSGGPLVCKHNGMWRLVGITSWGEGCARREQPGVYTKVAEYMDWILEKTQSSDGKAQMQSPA

Row | Binder | IC50(nM), PK activity in human plasma activated with Factor XIIa (H-Pro-Phe-Arg-AMC) [nM]
1 | KH06 (antibody, human IgG4 S228P, kappa) heavy: EVQLQQSGAELVKPGASVRLSCTASGFNIKDTYIFWVKQRPKQGLEWIGRIDPENDNTKYDPKIQGKATLTADTSSNTAYLQLSSLTSEDSAIYYCAKGGGLFAYWGQGTLVSVSAASTKGPSVFPLAPCSRSTSESTAALGCLVKDYFPEPVTVSWNSGALTSGVHTFPAVLQSSGLYSLSSVVTVPSSSLGTKTYTCNVDHKPSNTKVDKRV[letters of human IgG4 Fc with S228P (EU numbers) not shown] light: DIQMTQSPSSLSASVGDRVTITCEASHDINNYIAWYQQKPGKAPKLLIYYTSTLQSGVPSRFSGSGSGTDFTFTISSLQPEDIATYYCLQYDNLFTFGQGTKVEIKRTVAAPSVFIFPPSDEQLKSGTASVVCLLNNFYPREAKVQWKVDNALQSGNSQESVTEQDSKDSTYSLSSTLTLSKADYEKHKVYACEVTHQGLSSPVTKSFNRGEC | 0.918
2 | KH08 (antibody, human IgG4 S228P, kappa) heavy: EVQLQQSGAELVKPGASVRLSCTASGFNIKDTYIFWVKQRPKQGLEWIGRIDPENDNTKYDPKIQGKATLTADTSSNTAYLQLSSLTSEDSAIYYCAKGGGLFAYWGQGTLVSVSAASTKGPSVFPLAPCSRSTSESTAALGCLVKDYFPEPVTVSWNSGALTSGVHTFPAVLQSSGLYSLSSVVTVPSSSLGTKTYTCNVDHKPSNTKVDKRV[letters of human IgG4 Fc with S228P (EU numbers) not shown] light: DIQMTQSPSAMSASVGDRVTITCEASHDINNYIAWYQQKPGKAPKLLIYYTSTLQSGVPSRFSGSGSGTDFTFTISSLQPEDIATYYCLQYDNLFTFGQGTKVEIKRTVAAPSVFIFPPSDEQLKSGTASVVCLLNNFYPREAKVQWKVDNALQSGNSQESVTEQDSKDSTYSLSSTLTLSKADYEKHKVYACEVTHQGLSSPVTKSFNRGEC | 0.578
